Assay results published in the antibiotic and cytotoxicity screens of Wong et al. (2023).
Some of the results follow.

Legend:
HSkMC = human skeletal muscle cells; assay: cytotoxicity call (relative viability < 0.9); conditions: 10 µM
HepG2 = assay: cytotoxicity call (relative viability < 0.9); conditions: 10 µM
S. aureus RN4220 = assay: growth inhibition call (relative growth <= 0.2); conditions: 50 µM

C[C@@H]1CN([C@@H](C)CO)C(=O)c2cc(NC(=O)Nc3ccc4c(c3)OCO4)ccc2O[C@@H](C)CCCCO[C@@H]1CN(C)C(=O)Cc1ccccc1
inactive: cytotoxicity call (HSkMC) | cytotoxicity call (HepG2) | growth inhibition call (S. aureus RN4220)

Cc1noc(C)c1NC(=O)Nc1ccc2c(c1)C(=O)N([C@H](C)CO)C[C@@H](C)[C@H](CN(C)Cc1ccc(C(=O)Nc3ccccc3N)cc1)O2
inactive: cytotoxicity call (HSkMC) | cytotoxicity call (HepG2) | growth inhibition call (S. aureus RN4220)

C[C@@H]1CN([C@H](C)CO)C(=O)c2cc(NS(=O)(=O)c3ccccc3)ccc2O[C@@H](C)CCCCO[C@H]1CN(C)C(=O)Nc1ccccc1
inactive: cytotoxicity call (HSkMC) | cytotoxicity call (HepG2) | growth inhibition call (S. aureus RN4220)

Cn1c(N)c(S(=O)(=O)N2CCCC[C@@H]2c2cccnc2)c(=O)n(C)c1=O
inactive: cytotoxicity call (HSkMC) | cytotoxicity call (HepG2) | growth inhibition call (S. aureus RN4220)

C[C@@H]1CCCCO[C@H](CN(C)Cc2ccncc2)[C@H](C)CN([C@H](C)CO)C(=O)c2cc(NC(=O)NC3CCCCC3)ccc2O1
inactive: cytotoxicity call (HSkMC) | cytotoxicity call (HepG2) | growth inhibition call (S. aureus RN4220)

O=C(C[C@H]1CC[C@@H]2[C@H](COC[C@H](O)CN2Cc2cc(F)ccc2F)O1)N[C@H]1CCN(Cc2ccccc2)C1
inactive: cytotoxicity call (HSkMC) | cytotoxicity call (HepG2) | growth inhibition call (S. aureus RN4220)

COc1ccc(CN(C)C[C@@H]2OCCCC[C@@H](C)Oc3ccc(NC(=O)NC(C)C)cc3C(=O)N([C@H](C)CO)C[C@@H]2C)cc1
inactive: cytotoxicity call (HSkMC) | cytotoxicity call (HepG2) | growth inhibition call (S. aureus RN4220)

CC(C)NC(=O)N(C)C[C@H]1Oc2ccc(NS(=O)(=O)c3ccc(Cl)cc3)cc2C(=O)N([C@@H](C)CO)C[C@H]1C
inactive: cytotoxicity call (HSkMC) | cytotoxicity call (HepG2) | growth inhibition call (S. aureus RN4220)
